Assay [1] has as its target RSV postfusion F (postF), F deltaFP (Respiratory Syncytial Virus). Kind of assay: BLI, IgG on anti-human IgG sensor, 100 nM antigen. (In general: In BLI a coated tip is dipped into the sample, and binding shifts an interference pattern.)
For assay [2], the target named is RSV prefusion F (preF), DS-Cav1 (Respiratory Syncytial Virus). Kind of assay: BLI, IgG on anti-human IgG sensor, 100 nM antigen.
The target in assay [3] is Respiratory Syncytial Virus fusion glycoprotein (RSV F) on RSV-A2 virus (Respiratory Syncytial Virus subtype A (RSV-A2)). Kind of assay: cell-based or functional assay.

These results are taken from patent publication US20260258115A1.

B1: ADI-41192 (antibody, V domains shown)
VH: QVQLVQSGAEVKKPGASVKVSCRTSGYTFTDYEINWVRQAPGQGLEWMGGISAYNGKTDYAQNLQDRVTMTTDTSTSTAYMELRSLRSDDTAVYYCARIFYYDRSGYYLALFDSWGHGTLVTVSS
VL: [about 100 residues not written out]TLTFGGGTKMDIK
Broadly, the Kd is the equilibrium constant for the complex coming apart. Regarding B1, the Kd in assay [1] came to 0.589 nM; in assay [2] it was 3.39 nM. In assay [3], this molecule returned a Neutralization IC50 (RSV subtype A) greater than 25 µg/mL.
